Consider 115 sequences from the BET-seq Pho4 binding data (Le et al. 2018).

This is one part of the list. The energies were worked out here from pooled read counts, against the library average; single values are noisy.

The target in the test is T1, Pho4 (S. cerevisiae) (UniProt P07270).
T1 sequence: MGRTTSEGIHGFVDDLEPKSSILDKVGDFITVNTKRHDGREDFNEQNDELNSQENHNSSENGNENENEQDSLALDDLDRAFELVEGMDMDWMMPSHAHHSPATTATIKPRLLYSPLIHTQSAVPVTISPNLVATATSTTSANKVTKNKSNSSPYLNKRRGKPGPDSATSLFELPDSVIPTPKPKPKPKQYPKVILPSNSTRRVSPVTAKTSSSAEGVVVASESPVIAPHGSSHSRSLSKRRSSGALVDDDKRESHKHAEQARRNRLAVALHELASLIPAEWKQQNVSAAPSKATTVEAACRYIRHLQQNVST
Put plainly: relative binding free energy (BET-seq); higher = weaker binding. The settings on record: reference: library average.
Take TTCAACACGTGTGGAT: the “relative binding free energy” value is 0.21 kcal/mol.

Regarding GTTGGCACGTGATGTA, the “relative binding free energy” value was found to be 0.06 kcal/mol.

Consider CGGCGCACGTGGGGTT, for which the “relative binding free energy” value is -0.31 kcal/mol.

For the sequence GGGGGCACGTGTGGGA, the “relative binding free energy” value came to 0.01 kcal/mol.

For GTATCCACGTGGGGGA, the “relative binding free energy” value is -0.1 kcal/mol.

On to TGTTTCACGTGGAGCA, for which the “relative binding free energy” value came to 0.24 kcal/mol.

In the case of GATACCACGTGGGGGG, the “relative binding free energy” value was -0.27 kcal/mol.

For AAGAACACGTGTAGTT, the “relative binding free energy” value came to 0.21 kcal/mol.

For TGCTGCACGTGATGAT, the “relative binding free energy” value amounted to 0.01 kcal/mol.

In the case of TATATCACGTGTACGT, the “relative binding free energy” value was determined as 0.13 kcal/mol.

AGGGTCACGTGAAAGA: the “relative binding free energy” value was determined as 0.18 kcal/mol.

On to AGGTACACGTGTATTG, for which the “relative binding free energy” value worked out at 0.06 kcal/mol.

Consider TCAGGCACGTGTTAAG, for which the “relative binding free energy” value was -0.01 kcal/mol.

As to TGTTGCACGTGATCGT, the “relative binding free energy” value stood at 0.01 kcal/mol.

CGGGTCACGTGGGAGG: the “relative binding free energy” value was determined as 0.04 kcal/mol.

In the case of AGCTGCACGTGGGAGT, the “relative binding free energy” value is -0.12 kcal/mol.

As to CGGATCACGTGTGCGT, the “relative binding free energy” value came out at 0.1 kcal/mol.

As to GTAGACACGTGGGTCG, the “relative binding free energy” value was -0.06 kcal/mol.

On to ACAATCACGTGATGGT, for which the “relative binding free energy” value came to 0.28 kcal/mol.

GTGAGCACGTGTTTTT: the “relative binding free energy” value is 0.02 kcal/mol.

Turning to GGGGGCACGTGTTCGG, the “relative binding free energy” value is -0.01 kcal/mol.

For the sequence TTATCCACGTGGGGGT, the “relative binding free energy” value was -0.14 kcal/mol.

Take TGGGCCACGTGTGTTT: the “relative binding free energy” value amounted to 0.08 kcal/mol.

Regarding CGATTCACGTGGGGGT, the “relative binding free energy” value stood at 0.13 kcal/mol.

As to TTGCCCACGTGGTGGG, the “relative binding free energy” value is -0.2 kcal/mol.

ATGTACACGTGGCGGC: the “relative binding free energy” value was -0.01 kcal/mol.

For the sequence GAATTCACGTGGGTAG, the “relative binding free energy” value is 0.14 kcal/mol.

CTGAACACGTGTTTAT: the “relative binding free energy” value was 0.24 kcal/mol.

Regarding CGGGTCACGTGTCTTT, the “relative binding free energy” value worked out at 0.12 kcal/mol.

For the sequence GTTCGCACGTGAATTT, the “relative binding free energy” value stood at 0.39 kcal/mol.

CAGTACACGTGGTGGG: the “relative binding free energy” value is -0.02 kcal/mol.

On to AGTTGCACGTGTTGAA, for which the “relative binding free energy” value stood at 0.18 kcal/mol.

Take GTTGGCACGTGTGGCG: the “relative binding free energy” value was determined as 0.03 kcal/mol.

GGGAGCACGTGAGAGC: the “relative binding free energy” value worked out at 0.2 kcal/mol.

For GATTGCACGTGCGCGT, the “relative binding free energy” value is -0.06 kcal/mol.

As for GAGGCCACGTGGGTTA, the “relative binding free energy” value is -0.12 kcal/mol.

For TGAGGCACGTGGTAGG, the “relative binding free energy” value was -0.31 kcal/mol.

Turning to ATTCGCACGTGAATTG, the “relative binding free energy” value was 0.25 kcal/mol.

Take TGGGCCACGTGGGAAT: the “relative binding free energy” value is -0.26 kcal/mol.

As to TACTTCACGTGATAGG, the “relative binding free energy” value worked out at 0.38 kcal/mol.

In the case of GAGGCCACGTGAGGGC, the “relative binding free energy” value amounted to 0.2 kcal/mol.

Turning to CCGGGCACGTGGTTGT, the “relative binding free energy” value is -0.32 kcal/mol.

On to GTGTGCACGTGCGCGT, for which the “relative binding free energy” value is -0.2 kcal/mol.

As for ATGAGCACGTGGTAAG, the “relative binding free energy” value was -0.16 kcal/mol.

With TTTACCACGTGATTTA, the “relative binding free energy” value worked out at 0.16 kcal/mol.

Turning to ACTGTCACGTGGTGTT, the “relative binding free energy” value turned out to be 0.06 kcal/mol.

With TGCGTCACGTGGGGAC, the “relative binding free energy” value was -0.04 kcal/mol.

On to TGACGCACGTGTAGGC, for which the “relative binding free energy” value was found to be 0.04 kcal/mol.

For TTTTTCACGTGATGAC, the “relative binding free energy” value was determined as 0.35 kcal/mol.

Turning to AAGTGCACGTGAGTGT, the “relative binding free energy” value worked out at 0.14 kcal/mol.

For the sequence TGTGACACGTGTTCAT, the “relative binding free energy” value is 0.01 kcal/mol.

GGCGACACGTGCGGTG: the “relative binding free energy” value was -0.06 kcal/mol.

As for GTTGCCACGTGGTTCT, the “relative binding free energy” value stood at 0.03 kcal/mol.

With GCATGCACGTGGGCGG, the “relative binding free energy” value is -0.22 kcal/mol.

With CCTGGCACGTGGGTGG, the “relative binding free energy” value was -0.2 kcal/mol.

Take TCTGTCACGTGTTTGC: the “relative binding free energy” value was -0.04 kcal/mol.

Consider GTAATCACGTGGGATC, for which the “relative binding free energy” value worked out at 0.12 kcal/mol.

TAACGCACGTGCGGTT: the “relative binding free energy” value was -0.06 kcal/mol.

Turning to TTGGACACGTGGTCTA, the “relative binding free energy” value was -0.09 kcal/mol.

With AGCGACACGTGTGTTG, the “relative binding free energy” value is -0.09 kcal/mol.

Turning to CGGGTCACGTGTGGGA, the “relative binding free energy” value is 0.16 kcal/mol.

Turning to GGGACCACGTGGTGGG, the “relative binding free energy” value was -0.04 kcal/mol.

TCAGACACGTGGTTTT: the “relative binding free energy” value is 0.07 kcal/mol.

Take TTATCCACGTGTGTAG: the “relative binding free energy” value was -0.08 kcal/mol.

Consider ACATTCACGTGTTTTG, for which the “relative binding free energy” value is 0.07 kcal/mol.

Take TTGTGCACGTGAGTGT: the “relative binding free energy” value came out at 0.1 kcal/mol.

As to GTGGGCACGTGAATCA, the “relative binding free energy” value came out at 0.21 kcal/mol.

Turning to CTGAGCACGTGGGTTA, the “relative binding free energy” value is -0.2 kcal/mol.

As to TGCGTCACGTGGGTAA, the “relative binding free energy” value is -0.01 kcal/mol.

For the sequence AGTGTCACGTGGCGCT, the “relative binding free energy” value is -0.05 kcal/mol.

On to GTGTGCACGTGGAGTC, for which the “relative binding free energy” value was 0.02 kcal/mol.

As for TGTAGCACGTGCTTAG, the “relative binding free energy” value is -0.14 kcal/mol.

On to TTAAACACGTGGAGTT, for which the “relative binding free energy” value came to 0.01 kcal/mol.

Regarding ATAGACACGTGAGGGT, the “relative binding free energy” value was 0.23 kcal/mol.

With TATTGCACGTGGTGGA, the “relative binding free energy” value is -0.04 kcal/mol.

Regarding TAGGTCACGTGAGGAC, the “relative binding free energy” value was found to be 0.23 kcal/mol.

Take TGAGGCACGTGCGGTG: the “relative binding free energy” value is -0.14 kcal/mol.

For the sequence TTCGACACGTGTTTTT, the “relative binding free energy” value was determined as 0.07 kcal/mol.

Turning to AGCTGCACGTGTGTGG, the “relative binding free energy” value came out at 0.08 kcal/mol.

As to TGATGCACGTGTAGAT, the “relative binding free energy” value was determined as 0.11 kcal/mol.

On to TCAGTCACGTGCGGGG, for which the “relative binding free energy” value came out at 0 kcal/mol.

Take ATATTCACGTGAGTGT: the “relative binding free energy” value is 0.32 kcal/mol.

TAGGACACGTGAATAT: the “relative binding free energy” value is 0.3 kcal/mol.

ACGAGCACGTGTGGGA: the “relative binding free energy” value is -0.17 kcal/mol.

ATAGTCACGTGGTCGG: the “relative binding free energy” value came out at 0.15 kcal/mol.

For CAGTGCACGTGGGCGT, the “relative binding free energy” value is -0.15 kcal/mol.

In the case of GTCGGCACGTGGAGGG, the “relative binding free energy” value is -0.02 kcal/mol.

With ATAGACACGTGTGTGG, the “relative binding free energy” value was -0.07 kcal/mol.

For the sequence TATAGCACGTGTTTGA, the “relative binding free energy” value is -0.11 kcal/mol.

On to GGTACCACGTGACGGT, for which the “relative binding free energy” value turned out to be 0.35 kcal/mol.

With AGGTGCACGTGTTGGA, the “relative binding free energy” value is -0.1 kcal/mol.

On to TTTAGCACGTGCTGTT, for which the “relative binding free energy” value is -0.14 kcal/mol.

AATTGCACGTGGGGTA: the “relative binding free energy” value is -0.21 kcal/mol.

In the case of TTTTTCACGTGAATTT, the “relative binding free energy” value worked out at 0.36 kcal/mol.

Consider AGTCTCACGTGATTTT, for which the “relative binding free energy” value turned out to be 0.19 kcal/mol.

For GATTCCACGTGAGGGG, the “relative binding free energy” value was determined as 0.4 kcal/mol.

Take AGGCTCACGTGAGGGA: the “relative binding free energy” value is 0.44 kcal/mol.

TGGCTCACGTGGAATT: the “relative binding free energy” value came to 0.33 kcal/mol.

With GAAAGCACGTGTGGGG, the “relative binding free energy” value amounted to 0 kcal/mol.

For the sequence TTTCGCACGTGTGATG, the “relative binding free energy” value came to 0.13 kcal/mol.

On to GGAAGCACGTGATGAG, for which the “relative binding free energy” value stood at 0.08 kcal/mol.

In the case of TGCGTCACGTGGTTAT, the “relative binding free energy” value came to 0.06 kcal/mol.

With ATGATCACGTGTATTT, the “relative binding free energy” value was 0.13 kcal/mol.

In the case of AGTGACACGTGTTGTG, the “relative binding free energy” value is -0.06 kcal/mol.

For the sequence GGAGTCACGTGTTAGT, the “relative binding free energy” value was 0.13 kcal/mol.

As for TGCGGCACGTGTCAGG, the “relative binding free energy” value is -0.13 kcal/mol.

In the case of GCTTTCACGTGTTGAG, the “relative binding free energy” value stood at 0.18 kcal/mol.

Turning to GGTGTCACGTGGGATG, the “relative binding free energy” value stood at 0.09 kcal/mol.

On to GTGGTCACGTGGAAAG, for which the “relative binding free energy” value came out at 0.29 kcal/mol.

Regarding TTTGACACGTGTTGCT, the “relative binding free energy” value was -0.03 kcal/mol.

As for ATGGCCACGTGGTGTG, the “relative binding free energy” value was -0.19 kcal/mol.

Turning to TTGGACACGTGGAGGG, the “relative binding free energy” value is 0 kcal/mol.

On to GGGGACACGTGATATG, for which the “relative binding free energy” value came to 0.14 kcal/mol.

For the sequence GGATCCACGTGGGTTT, the “relative binding free energy” value was 0.22 kcal/mol.

Regarding TCAGTCACGTGTGGTA, the “relative binding free energy” value turned out to be 0.11 kcal/mol.
